Experimental data from PubChem BioAssay (NCI).
“And” between values parts separate entries of the source, which are not always exact repeats. Equal values may be shown once.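 Exposure lasted 48 hours, with cells grown in 96-well plates and compounds tested at five concentrations. GI50: concentration for 50% inhibition of growth. The concentration for full growth arrest is given as TGI.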

tested on: NCI-H322M lung; experiment: DTP human tumour cell line panel, 48 h

| Structure (SMILES) | TGI | GI50 |
| --- | --- | --- |
| O=C(c1ccccc1)c1ccc2nc3n(c2c1)C(c1c(Cl)cccc1Cl)SC3 (stereo not given) | > 100 µM | – |
| CC(=O)Nc1cc(/C=C\C(=O)N2CC(CCl)c3c2cc(N)c2ccccc32)n(C)n1 (stereo not given) | 0.338 µM | – |
| O=C1CC(=O)NC(=NN2C(=O)/C(=C/c3ccc(Cl)cc3)N=C2c2ccccc2)N1 | 61.7 µM | – |
| Cc1cn2c(/C=C3/C(=O)Nc4ccc(C(=O)O)cc43)c(C)nc2s1 | > 100 µM | > 100 µM |
| COc1ccc2nc(-c3ccc(O)cc3)ccc2c1 | > 100 µM | – |
| Nc1c(C(=O)c2ccccc2)nnc2ccccc12 | > 100 µM | – |
| O=S(=O)(Cc1ccccc1)SCc1ccccc1 | > 100 µM | – |
| CCOC(=O)COc1cccc2occc(=O)c12 | > 100 µM | – |
| C1CCN2CC3CONC3C2C1 (stereo not given) | > 100 µM | – |
| CC1=CC(=O)c2c(O)c3c(c(O)c2C1=O)C1C(O)C(C3=O)C23C(=O)c4c(O)c(C)cc(O)c4C(O)=C2C(=O)CC(O)C13 (stereo not given) | 5.57 µM | – |
| Cc1n(Cc2ccc3ccccc3n2)cc[n+]1Cc1ccc2ccccc2c1 | 14.9 µM | 2.96 µM |
| CON(C)C(=O)C(C)NC(=O)OC(C)(C)C (stereo not given) | > 100 µM | – |
| Oc1ccc(-c2[nH]c3ccccc3c2-c2nc3ccccc3o2)cc1 | 18.7 µM | 4.87 µM |
| Nc1ncc(Sc2ccccc2C(=O)O)s1 | > 100 µM | – |
| CC(C)c1cc(C(C)C)c(Cl)c(Cl)c1O (tested in a mixture with another compound) | > 100 µM | – |
| CCN(CC)Cc1ccc(Nc2c3ccccc3nc3ccccc23)cc1 | 13.6 µM | – |
| Cc1ccc(NC(=O)c2ccc(NC3=C(Cl)C(=O)N(Cc4ccccc4)C3=O)cc2)cc1Cl | > 100 µM | 19.3 µM |
| NC(N)=N/N=C/c1c(-c2ccc(Cl)cc2)nc2sc(Cl)cn12 | 3.02 µM | – |
| COCCOCCOCCC(=O)NC1CC2CCC1(C)C2(C)C (stereo not given) | > 100 µM | – |
| O=C(CCC(=O)C1Cc2ccccc2C1=O)Nc1cccc(C(F)(F)F)c1 (stereo not given) | > 100 µM | – |
| CC(C)=CC(=O)CC(=O)C(=O)NCCNC(=O)C(=O)CC(=O)C=C(C)C | > 50 µM | – |
| Oc1c(I)cc(Cl)c2cccnc12 | 41.9 µM and 60 µM | 4.37 µM and 21.1 µM |
| O=C(O)Cn1ccc(=O)c2c([N+](=O)[O-])cccc21 | > 100 µM | – |

| Structure (SMILES) | TGI | GI50 |
| --- | --- | --- |
| NCC(Cc1ccccc1)P(=O)(O)O (stereo not given) | > 100 µM | – |
| N/C(=N\N=C/c1cc([N+](=O)[O-])cc([N+](=O)[O-])c1O)NO | > 100 µM | – |
| CC(=O)Oc1ccc(/C=C/C(=O)NCCOC(=O)/C=C/c2ccc(OC(C)=O)c(OC(C)=O)c2)cc1OC(C)=O | > 100 µM | – |
| Clc1ccc(-c2nnc(-c3nsc4ccccc34)o2)cc1 | > 100 µM | – |
| O=S(=O)(c1ccc2ccccc2c1)N1CCN(S(=O)(=O)c2ccc3ccccc3c2)CC1 | > 100 µM | – |
| CCN(CC)C(=S)S | > 100 µM | – |
| O=C(O)C1=C(C(=O)O)Oc2ccccc2O1 | > 100 µM | – |
| Cc1nn2c(-c3nc4cc(Cl)c(Cl)cc4[nH]3)c(-c3ccc(F)cc3)nc2s1 | > 25.1 µM | 2.47 µM |
| O=C1NC2=NN=C(c3ccc(Br)cc3)CN2NC12c1ccccc1-c1ccccc12 | > 100 µM | – |
| C/C(=N\Nc1nc2ccccc2n1C)c1ccc2ccccc2n1 | 9.72 µM | – |
| COC(=O)C1(Cc2ccccc2)Cc2c(C)ccc(C)c2C1=O (stereo not given) | > 100 µM | – |
| COC(=O)c1ccc2c(c1)C(=O)c1c-2n(CCCCl)c(=O)c2cc(OC)c(OC)cc12 | > 100 µM | > 100 µM |
| CC1=NNC(=O)[C@H]2[C@H]1CCC1[C@@H]2CC[C@]2(C)[C@@H](O)CC[C@@H]12 (stereo not given in full) | > 100 µM | – |
| Nc1ncnc2c1ncn2CCOC(c1ccccc1)P(=O)(O)O (stereo not given) | > 100 µM | – |
| Nc1n[nH]c2ccc([C@@H]3Nc4c(F)cc5[nH]ncc5c4[C@H]4C5CCC(C5)[C@@H]34)cc12 (stereo not given in full) | > 58.3 µM | 0.671 µM |
| O=C(O)c1ccccc1CC(Cc1ccccc1)C(=O)O (stereo not given) | > 100 µM | – |
| Nc1ncnc2c1N=C(c1ccccc1)CC(c1ccccc1)N2 (stereo not given) | > 100 µM | – |
| COc1cc(S(=O)(=O)Nc2ccc(-c3csc(/N=C\c4cccs4)n3)cc2)ccc1Cl | > 100 µM | – |
| CN(C)CCS(=O)(=O)Nc1cc(-c2ccc3ncnc(Nc4ccc(F)c(Cl)c4)c3c2)cnc1Cl | 1.25 µM | 0.192 µM |
| CC(C)C/C(=N\NC(=O)c1ccncc1)c1cc(Cl)ccc1O | 65.3 µM | 0.205 µM |
| COc1cccc(/C=N/[N-]C(N)=O)c1[O-].[OH3+].[Pd+2] | > 100 µM | – |
| Cn1cc(NC(=O)c2cc(NC(=O)CCCCCCCC(=O)Nc3cc(C(=O)Nc4cc(C(=O)NCCC(=N)N)n(C)c4)n(C)c3)cn2C)cc1C(=O)NCCC(=N)N | 86.1 µM | – |
| NC(N)=N/N=C\c1c(-c2ccccc2)nc2sccn12 | 31.2 µM | – |

| Structure (SMILES) | TGI | GI50 |
| --- | --- | --- |
| CCOc1ccc(/C=C2/C(=O)N=C(N)N=C2N)cc1OCC | > 100 µM | – |
| O=c1[nH]c(=S)[nH]c2c(C3OC(CO)C(O)C3O)nsc12 (stereo not given) | > 100 µM | – |
| CCN(CC)CCCNc1c2ccc(Cl)cc2nc2ccc(OC)cc12 | 3.65 µM | 0.0602 µM |
| c1csc(C(NC2=NCCO2)C2CC2)c1 (stereo not given) | > 100 µM | – |
| N=C(N)c1ccc(N=Nc2c(O)ccc3cc(O)ccc23)cc1 | > 100 µM | – |
| CCc1ccc(C2=NN(c3ccc(S(C)(=O)=O)cc3)C(=O)CC2)cc1 | > 100 µM | 3.05 µM |
| CC1=C2CC(C)(C)CC(=O)C2(C)CCC1=O (stereo not given) | > 100 µM | – |
| Cn1c(CC(O)c2nc3ccccc3n2C)nc2ccccc21 (stereo not given) | > 56.7 µM | – |
| CO/C(=N\N=C(/c1ccccc1)C(F)(F)F)c1ccncc1 | > 100 µM | – |
| CCOC(=O)c1cc2cc(OCc3ccccc3)ccc2[nH]1 | > 100 µM | > 100 µM |
| CN(C)c1ccc2c(c1)OC(N)=C(C#N)C2c1ccc2c(c1)CCCN2C (stereo not given) | > 100 µM | 28.1 µM |
| COC(=O)C1=Nc2ccc(F)cc2/C1=C/c1sc(=S)[nH]c1O | > 75.6 µM | 0.445 µM |
| O=C1c2ccccc2-c2c1c1ccc([N+](=O)[O-])cc1c(=O)n2CCCCl | > 100 µM | 50.4 µM |
| O=C([O-])C1([n+]2c(-c3ccccc3)cc(-c3ccccc3)cc2-c2ccccc2)CC1 | > 100 µM | – |
| O=C(Nc1cccc(-n2cc(-c3ccncc3)c(-c3ccc(O)c(Cl)c3)n2)c1)Nc1ccc(Cl)c(Cl)c1 | 9.71 µM | 2.5 µM |
| O=S(=O)(/N=C(\NO)Nc1ccc(Cl)cc1)c1cc(S(=O)(=O)c2ccccc2)cs1 | 41.5 µM | – |
| CCC1=C(c2ccc(OC)cc2)CC[C@]2(CCNC2=O)[C@@H]1C | > 100 µM | – |
| CC(=O)c1c(O)c2c([nH]c1=O)CCCC2 | 51.3 µM | – |
| CCCC(=O)OC1C(C2COC(C)(C)O2)OC2OC(C)(C)OC21 (stereo not given) | > 100 µM | – |
| CCOC(=O)C1=C(C)N(CC(C)C)C2(O)C(OC)CC(=O)C3C(=O)N(c4ccccc4)C(=O)C132 (stereo not given) | > 100 µM | – |
| CC(=O)O[C@H]1C[C@@H](OC(C)=O)[C@@](C)(O)[C@@H]2[C@@H](OC(C)=O)[C@@]3(O)[C@H](/C=C(/CCl)[C@H]4O[C@H]4[C@@H](OC(C)=O)[C@@]12C)OC(=O)[C@@H]3C | > 25 µM | – |
| O=C(/C=C/c1ccc(Cl)cc1)c1ccc(Cl)s1 | > 100 µM | – |
